Measurements reported in PubChem BioAssay AID360 (National Center for Advancing Translational Sciences (NCATS), 2006).
About 550 (1.1%) of roughly 48,000 compounds were called active. About 4% were inconclusive and are not listed. No stated cut-off is given here; in the data, active means potency below about 15 µM; inconclusive means mostly about 16 µM to 33 µM; inactive means weaker than that. This is one part of the list.

These molecules were tested against Lysosomal acid glucosylceramidase (Homo sapiens) (UniProt P04062) (assay: Glucocerebrosidase). Details: purified enzyme, resorufin glucoside fluorescence (screen aimed at inhibitors), 20 min.
Summary of the method: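 Wild-type enzyme at 0.2 nM final in 50mM citric acid/KH2PO4, 10mM sodium taurocholate, 0.01% tween-20, pH 5.9, with resorufin beta-D-glucopyranoside at 30 uM final. Compounds titrated, 20 min at RT, red fluorescence read; AC50 from titration.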
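Further: the screen sought inhibitors.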
Potency means the concentration at half of the fitted maximal effect.

Sequence of UniProt P04062 (P04062 whole entry, looked up): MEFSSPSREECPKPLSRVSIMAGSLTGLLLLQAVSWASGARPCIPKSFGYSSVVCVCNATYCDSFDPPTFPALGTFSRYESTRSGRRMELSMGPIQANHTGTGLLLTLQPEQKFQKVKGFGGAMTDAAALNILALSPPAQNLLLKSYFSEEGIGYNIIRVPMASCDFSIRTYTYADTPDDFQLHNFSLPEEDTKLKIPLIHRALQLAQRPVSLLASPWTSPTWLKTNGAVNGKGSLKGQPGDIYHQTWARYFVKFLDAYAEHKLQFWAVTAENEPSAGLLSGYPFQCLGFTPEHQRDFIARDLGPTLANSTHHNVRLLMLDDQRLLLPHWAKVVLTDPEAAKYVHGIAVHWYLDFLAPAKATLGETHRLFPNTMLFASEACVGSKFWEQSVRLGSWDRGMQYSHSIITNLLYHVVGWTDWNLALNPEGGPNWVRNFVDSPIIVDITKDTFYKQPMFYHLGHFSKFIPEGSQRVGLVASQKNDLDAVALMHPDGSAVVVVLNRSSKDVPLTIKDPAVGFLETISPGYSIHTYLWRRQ

Potency, inactive:
c1cc(-c2nc3ccccc3o2)nc(-c2nc3ccccc3o2)c1 > 76.9 µM, O=c1c2ccccc2ncn1C1CCCCC1 > 76.9 µM, COc1ccc(C2NC(c3ccc(OC)c(OC)c3OC)C(C)C(=O)C2C)c(OC)c1OC (stereo not given) > 76.9 µM, CC(C)Cc1nnc(NC(=O)CCC(=O)N2CCOCC2)s1 > 76.9 µM, Cc1cc(C)cc(CC2CC(=O)N(c3ccc4c(c3)OCCO4)C2=O)c1 (stereo not given) > 76.9 µM, Cn1c(=O)[nH]c(=O)c2c1ncn2CCN1CCOCC1 > 76.9 µM, Cc1ccn2cc(C(=O)NC3CCN(Cc4ccccc4)CC3)nc2c1 > 76.9 µM, CCCc1cc(-n2ccnc2)n2c(nc3ccccc32)c1C#N > 76.9 µM, COCc1cc(=O)[nH]c(Nc2nc(C)c3ccc(C)cc3n2)n1 > 76.9 µM, O=C(Cn1c(=O)c2c(ncn2Cc2ccccc2)n(Cc2ccccc2)c1=O)N1CCCC1 > 76.9 µM, CCOC(=O)C1CCN(C(=O)C2CCCCC2)CC1 > 76.9 µM, O=C(O)CCCC(=O)Nc1ccc(C(=O)N2CCCCC2)c(Cl)c1 > 76.9 µM, COC(=O)C1=C(CN2CCN(C)CC2)NC(=O)NC1c1cc(C)ccc1C (stereo not given) > 76.9 µM, COC(=O)c1ccccc1NC(=O)CN1CCC(NC(=O)c2ccc(C)cc2)CC1 > 76.9 µM, COc1ccc(Br)cc1CNC(=O)C1CCN(S(=O)(=O)N2CCCCC2)CC1 > 76.9 µM, Cc1nn2c3ccccc3nc2n(Cc2ccccc2)c1=O > 76.9 µM, CCc1nnc(NC(=O)c2nc3nccc(C)n3n2)s1 > 76.9 µM, O=C(NCCN1CCOCC1)c1csc2c1CCCCC2, Cc1nnc(SCC(=O)NCc2ccc3c(c2)OCO3)[nH]c1=O > 76.9 µM, Cn1c(N)c(C(=O)COC(=O)CCC(=O)c2cccs2)c(=O)n(C)c1=O > 76.9 µM, NC(Cc1cccc2nsnc12)C(=O)O (stereo not given) > 76.9 µM, COc1ccc2nc(C)cc(N3CC(C)OC(C)C3)c2c1 (stereo not given) > 76.9 µM, CCCCN(C)C(=O)C1CCC(=O)N(c2cc(OC)c(OC)c(OC)c2)C1c1ccc(OC)cc1 (stereo not given) > 76.9 µM, CCOc1cc(C#N)c(NC(=O)c2ccco2)cc1OCC > 76.9 µM, COc1ccc(C(=O)N(Cc2nc(-c3ccc(C)cc3)no2)C2CCCCC2)cc1OC > 76.9 µM
